Source: PubChem BioAssay AID493208 (National Center for Advancing Translational Sciences (NCATS), 2011)
Among all 44,000 compounds or so, about 340 (0.77%) were called active. Not shown: some 5% with an inconclusive outcome. The call rests on the fitted dose curve; in most records, active means well fitted inhibition curve with a large enough effect; inconclusive means small, poorly fitted or top-dose-only effect; inactive means flat fitted curve, though single readings scatter. The list shows a part of the results.

Test: Acumen qHTS Assay for Inhibitors of the mTORC1 Signaling Pathway in MEF (Tsc2-/-, p53-/-) Cells: Sytravon;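 further: plate controls were DMSO for no effect and rapamycin for full effect; nearly all actives have a fitted effect of over 50% in size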
Conditions: phospho-rpS6 immunofluorescence/PI, 24 h; series mostly up to 38.3 µM; activity change, negative = inhibition: at the top concentration
Procedure, shortened: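 Read-out: phospho-S6 Alexa-488 intensity over PI intensity per well, scored as % active cells using thresholds from rapamycin (7.5 nM) and DMSO controls. Tsc2-/-, p53-/- MEFs exposed to compound for 24 h; PI cell count recorded as viability.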

Activity change, negative = inhibition, inactive:
CCOC(=O)c1cc(S(=O)(=O)N(C)c2ccccc2)[nH]n1 4.08%
CCOc1ccc(S(=O)(=O)Nc2ccc3c(c2)CCCN3S(=O)(=O)c2ccc(C)cc2)cc1 0%
Cn1c(C(=O)NCc2ccccc2F)cc2cc(S(=O)(=O)N3CCCCC3)ccc21 2.74%
COC(=O)c1sc2cccc(F)c2c1S(=O)(=O)NCc1ccccc1Cl -4.87%
COc1ccc(NC(=O)CN(C)S(=O)(=O)c2ccc3nc(C)sc3c2)cc1Cl 0.974%
COc1ccc(CCNCc2c(C(=O)O)c(C)n(Cc3cccc(C)c3)c2C)cc1OC -0.69%
Cc1cccc(Nc2nnc(-c3ccc(C)c(S(=O)(=O)N4CCOCC4)c3)c3ccccc23)c1 21.8%
CCCOc1ccc(C(=O)Nc2ccc(NC(=O)c3ccc(Br)cc3)cc2)cc1 3.72%
CCOC(=O)c1scc(-c2ccc(C)cc2)c1S(=O)(=O)N1CCN(c2ccccc2)CC1 -12.2%
Cc1cc(C)cc(NC(=O)C2CCN(c3nnc(-n4c(C)ccc4C)s3)CC2)c1 -9.97%
CCc1cccc(NC(=O)CN(C)S(=O)(=O)c2ccc3c(c2)n(C)c(=O)c(=O)n3C)c1 -11.5%
COc1ccc(-c2noc(COc3ccc(C)cc3C)n2)cc1OC 0.188%
CC(=O)c1ccc(NS(=O)(=O)c2ccc3[nH]c(=O)[nH]c3c2)cc1 -6.19%
COc1ccc(S(=O)(=O)N(CC(=O)Nc2ccc(C)cc2)c2ccc(C)cc2)cc1OC -5.13%
COc1ccc(-n2c(SCC(=O)Nc3ccc4c(c3)OCO4)nc3c([nH]c4ccccc43)c2=O)cc1 -6.38%
COc1ccc(Cl)cc1NC(=O)c1noc2c1CCc1ccccc1-2 1.59%
O=C(CN1C(=O)c2ccccc2Sc2ncccc21)Nc1cccc(C(F)(F)F)c1 -3.92%
COc1cccc(CNC(=O)C2=C(C)C(=O)OC23CCCCCC3)c1 -2.86%
Cc1cccc(N2CCN(C(=O)CCNS(=O)(=O)c3ccc4c(c3)CCN4C(=O)C3CC3)CC2)c1C -18.5%
COc1ccc(Nc2cc(C)c3cc(NC(=O)COc4cccc(C)c4)ccc3n2)cc1 -25.5%
CCOc1ccccc1NC(=O)CN(c1cc(C)cc(C)c1)S(=O)(=O)c1c(C)nn(C)c1C 1.28%
Cc1cc(C)c(Cn2cnc3nc4c(cc3c2=O)CCCC4)c(C)c1 0%
CCOc1ccc2nc(Cl)c(C3CC(c4ccccc4)=NN3C(=O)CCC(=O)O)cc2c1 (centres undefined) -4.55%
CCOc1ccc(NC(=O)N2CCC(n3c(C)nc4cccnc43)CC2)cc1 3.77%
CCOc1ccc(C(=O)NCC(c2ccc3c(c2)OCO3)N2CCN(C)CC2)cc1 (centres undefined) 0.209%
CCc1cc(=O)oc2c(C)c(OCC(=O)Nc3ccc(S(=O)(=O)N(CC)CC)cc3)ccc12 -2.84%
Cc1ccc(-c2nnc(Nc3ccc(O)cc3)c3ccccc23)cc1S(=O)(=O)NC(C)(C)CO 0.0932%
Cc1nn2c(C)c(C(=O)NCc3cccc(Br)c3)cnc2c1-c1ccccc1 -10.5%
Cc1ccc(Cl)cc1N1CCN(C(=O)COc2cc(=O)n(C)c3ccccc23)CC1 -18.2%
COc1cc2c(cc1OC)C(COc1ccccc1OC)N(C(=O)c1ccc(S(=O)(=O)N(C)C)cc1)CC2 (centres undefined) 9.49%
COc1ccc(Nc2nc3c(S(=O)(=O)c4ccc(C)cc4)nnn3c3ccsc23)cc1Cl -0.983%
CC(=O)N1CCc2c(sc3c2c(=O)n(Cc2ccccc2)c(=O)n3Cc2ccccc2Cl)C1 -8.34%
Cc1ccc(/C=C/c2onc(C)c2S(=O)(=O)N2CCC(C(=O)N3CCN(c4cc(C)ccc4C)CC3)CC2)cc1 -1.33%
CCCCN(CC)C(=O)CSc1nc2ccccc2c(=O)n1Cc1ccco1 -1.46%
CC1CN(C(=O)N2CCC(C(=O)NCc3cccs3)CC2)c2ccccc2O1 (centres undefined) -3.7%
CCC1CCCCN1CCCNC(=O)c1c(O)nc2cc(C)ccn2c1=O (centres undefined) 1.57%
COc1ccc(NC(=O)C2CCN(c3ccc(Sc4ccc(C)cc4)nn3)CC2)cc1 -0.658%
COC(=O)c1cc2sc(Cl)cc2n1Cc1nc(-c2ccccc2C)oc1C -0.0551%
COc1cccc(CNC(=O)Cn2c(=O)nc(-c3ccccc3F)c3cc(Cl)ccc32)c1 0%
CC1CCN(S(=O)(=O)c2ccc3c(c2)N(CC(=O)NC(C)(C)C)C(=O)CS3)CC1 -3.92%
COc1ccc(Nc2oc(/C=C/c3cc(OC)c(OC)c(OC)c3)nc2C#N)cc1 -3.02%
COc1ccccc1C(=O)Nc1ccc(S(=O)(=O)Nc2nc(C)cc(C)n2)cc1 -2.21%
Cc1oc2ncnc(N3CCCCC3)c2c1C(=O)N1CCN(c2ccc(Cl)cc2)CC1 -1.64%
COc1ccc(S(=O)(=O)N(CC(=O)NCCc2ccccc2)c2ccc(Cl)cc2)cc1 2.04%
CCOc1ccc(C(=O)c2oc3ccccc3c2NC(=O)c2cc(=O)c3ccc(C)cc3o2)cc1 -6.99%
COc1ccc(-c2nc3c4ccccc4n(CC(=O)N4CCN(c5ccccc5F)CC4)c(=O)n3n2)cc1 0.141%
CCCCN(CC)CCNC(=O)c1nn(C)c2c1CS(=O)(=O)c1ccccc1-2 6.95%
CCc1ccc(NC(=O)CCCc2nnc3n(C(C)CC)c(=O)c4sccc4n23)cc1 (centres undefined) -1.81%
Cc1ccc(NC(=O)CSc2nnc(NC(=O)NC3CCCCC3)s2)cc1 -7.89%
CCCS(=O)(=O)N1CC(=O)N(c2ccc(Cl)cc2C)C(C)(C(=O)NC2CCCC2)C1 (centres undefined) 1.23%
COc1cc2nc(NC(=O)c3ccc(S(=O)(=O)N4CCOCC4)cc3)sc2cc1OC -11.8%
COc1ccc(NC(=O)CSC2=Nc3ccccc3C3=NC(CCC(=O)NC4CCCCC4)C(=O)N23)cc1 (centres undefined) -6.13%
CC(=O)c1cccc(NC(=O)C2CCN(S(=O)(=O)c3ccc4c(c3)oc(=O)n4C)CC2)c1 1.42%
CCOC(=O)c1cccc(NC(=O)CCn2c(-c3ccc(F)cc3)cc(C(=O)OCC)c2C)c1 -3%
O=C(CSCc1ccccc1Cl)N1CCN(c2ccc(Cl)cc2)CC1 7.01%
CCOC(=O)C1CCN(C(=O)c2ccc(-n3ccc4ccccc43)s2)CC1 -5.97%
Cc1cccc(NC(=O)N2CC(=O)Nc3sc4c(c3C2c2ccccc2)CCCC4)c1C (centres undefined) 3.04%
Cc1ccc(C(=O)c2cn(CC(=O)Nc3ccc(C)cc3Cl)c3nc(C)ccc3c2=O)cc1 5.81%
CCOc1cc(CNC(=O)c2ccc3c(c2)NC(=O)C2CCCCN32)cc(OCC)c1OCC (centres undefined) -0.484%
